This is one part of the list. Many values rest on one well or one pass, so single values are uncertain.
Key:
Test in all cases: cell count relative to DMSO control; melanoma cells; higher = more viable cells
Details in all cases: library dose: standard library concentration; 72 h
G361 = tested on: G361
IPC-298 = tested on: IPC-298
IST-MEL1 = tested on: IST-MEL1
LB2518-MEL = tested on: LB2518-MEL
LOXIMVI = tested on: LOXIMVI
MEL-HO = tested on: MEL-HO
MZ2-MEL = tested on: MZ2-MEL
MeWo = tested on: MeWo
RPMI7951 = tested on: RPMI7951
RVH-421 = tested on: RVH-421
SkMel28 = tested on: SkMel28
SkMel2 = tested on: SkMel2
SkMel30 = tested on: SkMel30
SkMel5 = tested on: SkMel5
UACC257 = tested on: UACC257
UACC62 = tested on: UACC62
WM115 = tested on: WM115
WM1716 = tested on: WM1716
WM1745 = tested on: WM1745
WM3526 = tested on: WM3526
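Note: cells treated in 1,536-well plates, then fixed and DAPI-stained, with nuclei counted from automated high-throughput microscope images.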

Compound	cell count (G361) [%]	cell count (IPC-298) [%]	cell count (IST-MEL1) [%]	cell count (LB2518-MEL) [%]	cell count (LOXIMVI) [%]	cell count (MEL-HO) [%]	cell count (MZ2-MEL) [%]	cell count (MeWo) [%]	cell count (RPMI7951) [%]	cell count (RVH-421) [%]	cell count (SkMel28) [%]	cell count (SkMel2) [%]	cell count (SkMel30) [%]	cell count (SkMel5) [%]	cell count (UACC257) [%]	cell count (UACC62) [%]	cell count (WM115) [%]	cell count (WM1716) [%]	cell count (WM1745) [%]	cell count (WM3526) [%]
O=C(Nc1cc(C(F)(F)F)cc(C(F)(F)F)c1)c1cc(Cl)ccc1O + CN(C)S(=O)(=O)c1ccc2c(c1)/C(=C/c1cc3c([nH]1)CCCC3)C(=O)N2 [SU6656] (first compound 0.08 µM, partner dose 2 µM)	53.7	71.9	60	90.9	87.3	69.8	96.6	72.6	191	83.9	64.5	79	98.9	95.5	91.5	78.2	56.2	62.8	71.8	73.8
O=C(Nc1cc(C(F)(F)F)cc(C(F)(F)F)c1)c1cc(Cl)ccc1O + NC(=O)Nc1cc(-c2cccc(F)c2)sc1C(=O)N[C@H]1CCCNC1 [AZD7762] (first compound 0.08 µM, partner dose 0.1 µM)	116	97.6	102	71.7	91.4	79.3	110	75.4	46.1	159	43.7	83.2	66.3	60.9	91.7	64	83.3	84	59.8	66
O=C(Nc1cc(C(F)(F)F)cc(C(F)(F)F)c1)c1cc(Cl)ccc1O + O=C(O)[C@@H]1[O][Sb](=[O])([O][Sb]2(=[O])[O][C@H]([C@H](O)CO)[C@H](O)[C@H](C(=O)O)[O]2)[O][C@H]([C@H](O)CO)[C@@H]1O [stibogluconate] (first compound 0.08 µM, partner dose 10 µM)	85.1	77.4	96.8	91.8	90.3	88.2	90.1	98.7	170	116	73.8	104	116	111	101	84.3	88.6	112	83.9	115
Cc1cc(N2CCOCC2)cc2[nH]c(-c3c(NC[C@@H](O)c4cccc(Cl)c4)cc[nH]c3=O)nc12 + NCC(=O)Nc1ccc(-n2nc(C(F)(F)F)cc2-c2ccc3c(ccc4ccccc43)c2)cc1 [OSU03012] (first compound 1 µM, partner dose 5 µM)	66.1	60.9	70.8	77.9	56.1	78.3	104	78.3	76.8	73.6	22	37	36.9	52.3	87.8	52	100	87.4	50.8	50.6
O=C(Nc1cc(C(F)(F)F)cc(C(F)(F)F)c1)c1cc(Cl)ccc1O + NC1(c2ccc(-c3nc4ccn5c(=O)[nH]nc5c4cc3-c3ccccc3)cc2)CCC1 [MK2206] (first compound 0.08 µM, partner dose 2 µM)	74.3	75.4	78.2	78.7	79.1	56.9	77	66.7	88	85.5	57.8	74.7	86.3	61.6	91.9	62.3	68.2	81.9	81.8	55.1
O=C(O)[C@@H]1[O][Sb](=[O])([O][Sb]2(=[O])[O][C@H]([C@H](O)CO)[C@H](O)[C@H](C(=O)O)[O]2)[O][C@H]([C@H](O)CO)[C@@H]1O (stereo not given in full) [stibogluconate] + Nc1cccc2c1CN(C1CCC(=O)NC1=O)C2=O [lenalidomide] (first compound 10 µM, partner dose 5 µM)	103	120	100	111	89.5	109	109	97.9	78.8	101	93.1	99.5	103	84.1	105	94.9	70.4	94.7	75.1	83.7
O=C(Nc1cc(C(F)(F)F)cc(C(F)(F)F)c1)c1cc(Cl)ccc1O + CC(=O)c1c(C)c2cnc(Nc3ccc(N4CCNCC4)cn3)nc2n(C2CCCC2)c1=O [palbociclib] (first compound 0.08 µM, partner dose 0.2 µM)	67.2	61.4	58.3	61.5	38.9	79.5	67.4	61.8	77.4	80.8	35.9	66.7	64	89.8	82	62.3	50.2	40.2	61.8	61.3
O=C(O)[C@@H]1[O][Sb](=[O])([O][Sb]2(=[O])[O][C@H]([C@H](O)CO)[C@H](O)[C@H](C(=O)O)[O]2)[O][C@H]([C@H](O)CO)[C@@H]1O (stereo not given in full) [stibogluconate] + O=C(O)c1ccc(-c2c[nH]c3ncc(-c4ccccc4)cc23)cc1C1CCCC1 [GSK650394] (first compound 10 µM, partner dose 0.8 µM)	58.2	92	76.6	91.5	120	74.8	89.3	98.5	84.5	91.4	71.1	70.8	98.1	96.1	86.2	98.5	86.3	86.6	145	101
O=C(Nc1ccccc1)c1cc([N+](=O)[O-])ccc1Cl + Cn1cc(/C=C2\C(=O)Nc3cccnc32)c2ccccc21 [GW441756] (first compound 10 µM, partner dose 2 µM)	89.7	90	111	79.4	63.5	84.8	79.6	78.1	70.5	90.7	82.4	101	74.3	87	98.8	65.3	74	109	73.4	92.4
O=C(Nc1cc(C(F)(F)F)cc(C(F)(F)F)c1)c1cc(Cl)ccc1O + O=C(/C=C/c1cccnc1)NCCCCC1CCN(C(=O)c2ccccc2)CC1 [FK866] (first compound 0.08 µM, partner dose 0.05 µM)	4.92	26	68.9	57.9	88.1	44.6	32.3	124	116	42.7	92.3	13.5	104	84.3	96.2	79.1	81.2	70.4	106	108
O=C(Nc1cc(C(F)(F)F)cc(C(F)(F)F)c1)c1cc(Cl)ccc1O + CCCCCCCCc1ccc(CCC(N)(CO)CO)cc1 [fingolimod] (first compound 0.08 µM, partner dose 10 µM)	1.63	27	16.3	0.425	18.5	17.8	0.333	44.7	0.981	32.5	0.854	0.216	11.3	81.2	91	31	17.4	65.2	3.68	61.4
O=C(O)[C@@H]1[O][Sb](=[O])([O][Sb]2(=[O])[O][C@H]([C@H](O)CO)[C@H](O)[C@H](C(=O)O)[O]2)[O][C@H]([C@H](O)CO)[C@@H]1O (stereo not given in full) [stibogluconate] + CN(C)S(=O)(=O)c1ccc2c(c1)/C(=C/c1cc3c([nH]1)CCCC3)C(=O)N2 [SU6656] (first compound 10 µM, partner dose 2 µM)	60.2	59.6	56	76.8	84.4	75.9	73.8	47.6	42.3	72.8	45.1	84.9	75.9	59.8	60.3	72	43.2	37.8	55.3	65.8
O=C(Nc1cc(C(F)(F)F)cc(C(F)(F)F)c1)c1cc(Cl)ccc1O + COCC[n+]1c2c(n(Cc3cnccn3)c1C)C(=O)c1ccccc1C2=O [YM155] (first compound 0.08 µM, partner dose 0.002 µM)	76.3	38.6	57.2	29	68.9	91	31.4	70.3	44.4	116	47.2	39.8	77.1	42.2	34.7	70	94.9	80.5	109	64.8
O=C(Nc1cc(C(F)(F)F)cc(C(F)(F)F)c1)c1cc(Cl)ccc1O + C[C@@H](N)c1ccc(C(=O)Nc2ccnc3[nH]ccc23)cc1 [RKI983] (first compound 0.08 µM, partner dose 2 µM)	89.1	88.4	89.6	107	106	60.9	64.6	74.2	69.4	51	91.5	133	107	49.7	35.1	68.7	100	29.8	55.9	93
O=C(Nc1cc(C(F)(F)F)cc(C(F)(F)F)c1)c1cc(Cl)ccc1O + COc1cc2c(Oc3ccc4[nH]c(C)cc4c3F)ncnc2cc1OCCCN1CCCC1 [cediranib] (first compound 0.08 µM, partner dose 2 µM)	99.5	88.5	78.9	90.8	75.2	87	89.5	69.2	47.7	74.8	85.4	83.4	84.7	61.6	65.7	64.1	86.7	87.2	57.3	87.8
Cn1nnc2c(C(N)=O)ncn2c1=O [temozolomide] + NC(=O)Nc1cc(-c2cccc(F)c2)sc1C(=O)N[C@H]1CCCNC1 [AZD7762] (first compound 10 µM, partner dose 0.1 µM)	120	87.5	77.4	81.6	88.2	94.3	100	106	31	136	41.7	113	65.7	88.3	106	72.5	71.5	54.6	62.1	63.3
O=C(O)c1ccc2c(c1)nc(Nc1cccc(Cl)c1)c1ccncc12 + Cc1nc(Nc2ncc(C(=O)Nc3c(C)cccc3Cl)s2)cc(N2CCN(CCO)CC2)n1 [dasatanib] (first compound 2 µM, partner dose 0.02 µM)	43.8	50.4	46.5	89.7	9.38	39.2	29.7	66.3	24.6	47	34.5	74.8	63.2	46.1	69.8	59.7	45	37.8	35.8	63.6

From the supplement of paper PMC4604168 (melanoma cell lines)
